About 50,000 (12%) of roughly 420,000 compounds were called active. This list was built around the results that the source calls inconclusive (neither active nor inactive); the mix of calls is not that of the screen. Calls come from the whole dose curve; as a rule, active = well fitted inhibition curve with a large enough effect; inconclusive = small, poorly fitted or top-dose-only effect; inactive = flat fitted curve, though single readings scatter. No potency is given beside an inconclusive call; the fits are too rough.
Test: qHTS for Inhibitors of human tyrosyl-DNA phosphodiesterase 1 (TDP1): qHTS in cells in presence of CPT; note: nearly all actives have a fitted effect of over 55% in size
Details: chicken DT40 Tdp1-/-;hTDP1 cells + 20 nM CPT, ATP luminescence, 48 h; activity change, negative = growth inhibition: at 46.2 µM (top of the series) unless noted
In short: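 Chicken DT40 Tdp1-/- cells complemented with human TDP1, 400 cells/well, exposed to compounds plus 20 nM camptothecin for at least 48 h at 37 C; viability read as ATP content by CellTiter-Glo luminescence.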
% is set by controls: 0 for no effect and ±100 for the full control effect; potency is the fitted concentration of half-maximal effect; tags give direction and shape of the fitted curve.

SMILES | activity change, negative = growth inhibition | Potency
NC(=O)c1nsc(C(=O)N(Cc2ccc(F)cc2)C(C(=O)NCC2CCCO2)c2ccc(O)cc2)c1N (configuration not stated) | inactive: -29.7% | –
CCCN(CCC)C(=O)C1CCN(c2cc(C)nc3c(-c4ccc(Cl)cc4)c(C)nn23)CC1 | inactive: -26.8% | –
CC(=O)Nc1cc(-c2ccccc2N(C)C)cn2c(-c3ccccc3)cnc12 | – | active: 16.4 µM
CCC(C)(C)n1nnnc1C(c1ccc(Cl)cc1)N1CCN(C)CC1 (configuration not stated) | inactive: -28.7% | –
CCC(C)C(NC(=O)/C(=C\c1ccccc1)NC(=O)c1ccc(OC)cc1)C(=O)O (configuration not stated) | inactive: 11.1% | –
CCCCn1c(N)c(N(CCC(C)C)C(=O)COC(=O)c2ccc3ccccc3c2)c(=O)[nH]c1=O | – | inconclusive [inhibitor, partial curve, poor fit]
COc1ccc2c(-c3cc4ccc(OCc5ccc(F)cc5)cc4oc3=O)cc(=O)oc2c1 | – | active: 7.31 µM
O=C(N/N=C/c1ccc(N2CCCCC2)o1)c1ccccc1[N+](=O)[O-] | – | inconclusive [inhibitor, single point]
O=C(NCCO)c1ccc(-c2nnc(Nc3ccc(OC(F)(F)Cl)cc3)c3ccccc23)cc1 | – | inconclusive [inhibitor, single point]
COc1cc(C(=O)Nc2cc(C)c(O)c(-c3nc4ccccc4s3)c2)cc(OC)c1OC | inactive: -7.65% | –
COc1ccc(OC)c(CC(NC(C)=O)C(=O)NC2CCN(c3nc(OC)nc(OC)n3)CC2)c1 (configuration not stated) | inactive: -8.11% | –
Cc1cc2nc(-c3ccc(OCc4ccccc4F)cc3)cc(C(F)(F)F)n2n1 | – | inconclusive [inhibitor, partial curve, poor fit]
CCCc1nn2c(=O)cc(COC(=O)c3ccc4c(c3)OCO4)nc2s1 | – | inconclusive [inhibitor, single point]
COc1ccc2[nH]c3c(=O)n(/N=C/[C@H]4C(C)C=C(C)CC4C)c(=O)[nH]c3c2c1 (some centres not stated) | – | active: 18.4 µM
Cc1nnc(NC(=O)c2sc3nc(-c4cccs4)cc(C(F)(F)F)c3c2N)s1 | – | inconclusive [inhibitor, single point]
CC(C)c1onc(C(=O)N(C)C2CCCCC2)c1[N+](=O)[O-] | – | inconclusive [inhibitor, single point]
CCCNC(=O)C(Cc1ccc(Cl)cc1)NC(=O)c1ccc(-c2ccccc2)cc1 (configuration not stated) | – | active: 8.2 µM
Cc1nn(Cc2cccc(C(=O)NCC(C)C)c2)c(C)c1Br | – | inconclusive [inhibitor, single point]
O=C(C1=C[C@H](C2CC2)C[C@H](OCc2ccc(CO)cc2)O1)N1CCN(Cc2ccc3c(c2)OCO3)CC1 | – | inconclusive [inhibitor, single point]
O=C(c1cc(Cl)nc2ccccc12)N(Cc1nnc(-c2ccccc2Cl)o1)C1CC1 | – | active: 16.4 µM
OCc1cnc(SCc2ccccc2)n1Cc1ccccc1 | inconclusive: -31.5% [inhibitor] | –
CNC(=O)c1ccccc1NC(=O)c1cccc(S(=O)(=O)N2CCCCC2)c1 | inactive: 12.9% | –
Brc1ccc2nc(-c3ccco3)c(Cc3ccccc3)n2c1 | – | inconclusive [inhibitor, single point]
Cc1ccc(-c2c(C(=O)Nc3ccccc3F)oc(=O)c3ccccc23)cc1 | – | inconclusive [inhibitor, single point]

SMILES | activity change, negative = growth inhibition | Potency
Cc1[nH]n(-c2ccccc2)c(=O)c1C(=O)c1cccc(F)c1 | – | inconclusive [inhibitor, single point]
COc1cccc(C(c2c(N)n(C)c(=O)n(C)c2=O)C(C)[N+](=O)[O-])c1 (configuration not stated) | – | inconclusive [inhibitor, single point]
CC(C)C[C@H](NC(=O)N1CCn2c1nc1ccccc12)C(=O)NCCc1ccccc1 | – | inconclusive [inhibitor, partial curve]
COC(=O)c1nc2ccccn2c1F | inactive: 5.7% | –
Cc1ccccc1C(OCCN(C(C)C)C(C)C)c1ccccc1 (configuration not stated) | – | inconclusive [inhibitor, partial curve]
Cc1cccc(C)c1OCC(=O)N=Nc1c(O)[nH]c2ccc(Br)cc12 | – | inconclusive [inhibitor, single point]
CC(C)CC(=O)Nc1ccc(C(=O)Cn2c(=O)oc3ccccc32)cc1 | inactive: -8.84% | –
O=C(CCC(=O)N1CCOCC1)NCCc1ccc(Cl)cc1Cl | inactive: -11.9% | –
Cn1c(NCCN)nc2c1c(=O)n(Cc1ccccc1)c(=O)n2C | – | inconclusive [inhibitor, single point]
CN(C)c1nc(Nc2ccc(F)cc2)nc(Oc2ccc(F)cc2)n1 | – | inconclusive [inhibitor, single point]
Cc1ccc(C)c(OCCC(=O)OCC(=O)c2ccc3c(c2)NC(=O)CO3)c1 | inactive: -8.45% | –
Cc1ccc(C)c(Cn2c(SCC(=O)NCc3ccccc3)nc3ccccc32)c1 | – | inconclusive [inhibitor, single point]
COc1ccc(/C(C)=N/NC(=O)CNC(=O)/C=C\c2ccco2)cc1 | – | active: 13 µM
CC(C)CN(CC(C)C)C(=O)CCCC(=O)N(CC(C)C)CC(C)C | – | inconclusive [inhibitor, single point]
Cc1ccc(C)c(N2CCN(C(=O)Cn3cnc4nc5c(cc4c3=O)CCCC5)CC2)c1 | – | inconclusive [inhibitor, single point]
CCOC(=O)C1(CCCc2ccccc2)CCN(S(=O)(=O)N(C)C)CC1 | – | inconclusive [inhibitor, single point]
CCOC(=O)c1cccc(NC(=O)C2=C(C)C(=O)OC23CCCCC3)c1 | – | inconclusive [inhibitor, single point]
O=C(Cc1ccccc1)N[C@@H](Cc1ccccc1)c1nc2ccccc2[nH]1 | – | inconclusive [inhibitor, single point]
COc1ccc(N2CCN(C(=O)c3ccc(COc4ccc5c(C)cc(=O)oc5c4)cc3)CC2)cc1 | – | inconclusive [inhibitor, single point]
CN(C)c1ccc(Cl)cc1N | inactive: 4.52% | –
COc1ccc(Oc2nc(SC)nc3ccccc23)cc1 | inconclusive: -30.6% [inhibitor] | –
Cc1nc2cc(N=NC3=C(O)CCCC3=O)ccc2s1 | inactive: 13% | –
Cc1ccn2cc(-c3ccc(NC(=O)c4ccco4)cc3)nc2c1 | – | inconclusive [inhibitor, single point]
CCOc1ccc(NC(=O)c2cnn(-c3ccc(C)c(C)c3)c2C2CCN(C(=O)OC(C)(C)C)CC2)cc1 | – | active: 16.4 µM

SMILES | activity change, negative = growth inhibition | Potency
COCCN(Cc1cc2cc3c(cc2nc1Cl)OCO3)C(=O)Nc1ccccc1OC | – | active: 16.4 µM
CC1CCC2(CC1)NC(=O)N(CC(=O)Nc1cccc(C#N)c1)C2=O (configuration not stated) | inactive: -16.9% | –
CC(C)NC(=O)c1cccc2c(-c3ccc(F)c(F)c3)coc12 | – | inconclusive [inhibitor, single point]
Cc1cc(C)c2oc(C(=O)Nc3ccc(S(=O)(=O)N4CCCC(C)C4)cc3)cc(=O)c2c1 (configuration not stated) | – | active: 14.6 µM
CCCCNc1c(-c2cccc(Sc3ccc(OC)cc3)c2)nc2ccccn12 | – | inconclusive [inhibitor, single point]
COc1cc(-c2cc(C(=O)Nc3ccc(O)cc3)c3ccccc3n2)cc(OC)c1OC | – | active: 10.3 µM
CNc1cc(CSc2ccc(Cl)cc2)nc(C)n1 | – | inconclusive [inhibitor, single point]
Cc1cccn2c(=O)c3cc(C(=O)NCc4ccco4)c(=N)n(C(C)C)c3nc12 | inactive: -26.1% | –
CCc1ccc(OCC(=O)N(Cc2ccco2)Cc2ccccc2Cl)cc1 | – | inconclusive [inhibitor, single point]
NC(=S)Nc1nc2ccccc2s1 | – | active: 2.59 µM
O=c1cc(-c2ccccc2)[nH]c2ccc(F)cc12 | – | active: 0.92 µM
COc1ccc(S(=O)(=O)Nc2ccccn2)c(C)c1C | – | inconclusive [inhibitor, single point]
O=C(N/N=C/c1cccc([N+](=O)[O-])c1)c1ccc(COc2ccccc2-c2ccccc2)cc1 | – | active: 20.6 µM
O=C(N/N=C/c1ccc([N+](=O)[O-])o1)c1ccccc1NS(=O)(=O)c1cccs1 | – | inconclusive [inhibitor, single point]
CCN1CCC2(CC1)N=C(c1ccc(F)cc1)C(=S)N2C(=O)c1ccc(C)cc1 | – | active: 8.2 µM
CCN(CC)S(=O)(=O)c1ccc(Cl)c(NC(=O)COc2ccccc2[N+](=O)[O-])c1 | – | inconclusive [inhibitor, partial curve, poor fit]
Cc1sc2nc(C3CC3)nc(N3CCN(C(=O)c4ccc(Cl)cc4)CC3)c2c1C | – | inconclusive [inhibitor, partial curve, poor fit]
CCOc1ccc(Nc2nc3c(S(=O)(=O)c4cccc(Cl)c4)nnn3c3ccsc23)cc1 | – | inconclusive [inhibitor, single point]
CNC[C@@H]1Oc2cc(Br)ccc2S(=O)(=O)N([C@H](C)CO)C[C@@H]1C | inactive: -10.8% | –
Cc1ccc(C)c(S(=O)(=O)Nc2ccc(C(=O)NCCCN(C)C)cc2)c1 | inactive: 8.12% | –
Cc1ccc(C(C)C)c(OCCCCN2CCNCC2)c1 | – | active: 14.6 µM
Cc1ncc2c(n1)NC(=O)NC2 | inactive: 9% | –
COC(=O)c1cccc(C(=O)N2CCc3c(C(=O)OC)c(OCc4ccccn4)cc(=O)n3CC2)c1 | inactive: -3.14% | –
COc1cc2c(cc1OC)CN(C(=O)CN1CCN(S(=O)(=O)c3ccc(C)c(C)c3)CC1)CC2 | – | active: 23.1 µM
